The whole screen tested about 45,000 compounds, of which about 200 (0.44%) were called active. Not shown: some 7% with an inconclusive outcome. Calls follow the shape of the dose curve; as a rule, active = well fitted activation curve with a large enough effect; inconclusive = small, poorly fitted or top-dose-only effect; inactive = no such curve, though single readings can be large or run the other way. The list shows a part of the results.

This test in a line: qHTS of TDP-43 Inhibitors: NCGC Sytravon Library Screen. Also: 0% is about no effect; nearly all actives have a fitted effect of over 55% in size. The following applies: yeast TDP-43 toxicity rescue, BacTiter-Glo growth, 24 h; series mostly up to 46.1 µM; growth rescue (activation): at the top concentration. In short, it runs like this:
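TDP-43-expressing yeast, pregrown in raffinose, seeded at OD600 0.02 in galactose medium with compound for 24 hr at 30 deg C. Growth read by BacTiter-Glo luminescence, so rescue of toxicity appears as activation.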
In the case of `CCOC(=O)c1c(NC(=O)CCN2CCOCC2)sc(C)c1-c1ccccc1`, the “growth rescue (activation)” value was inactive: -3.01%.
Consider `CCN(CC)CCNC(=S)Nc1ccc2nc(N3CCN(C)CC3)cc(C)c2c1`, for which the “growth rescue (activation)” value is inactive: 0.837%.
The value for `COc1ccccc1CCNC(=O)Cc1cccs1` was inactive: 25.4%; that for `O=C(N/N=C/c1ccccc1)c1cc(=O)[nH]c2ccccc12` was inactive: -19.8%; that for `COc1ccccc1-n1c(-c2ccco2)n[nH]c1=S` was inactive: -16.2%.
The value for `O=C(NCCc1ccccc1)C(c1ccc(F)cc1)N(C(=O)c1csnn1)C1CC1` (stereo not drawn) was inactive: 3.75%; that for `CSc1ccccc1NC(=O)CSc1nnc(Cc2ccccc2)o1` was inactive: 28.8%; that for `CN(C)S(=O)(=O)c1cccc(NC(=O)c2c[nH]c3ccccc23)c1` was inactive: 24.3%.
The value for `Cc1ncc([N+](=O)[O-])n1CC(=O)Nc1ccc(F)c(Cl)c1` was inactive: -6.93%.
As to `COc1ccc(S(=O)(=O)NC(C)C(=O)NCc2cccnc2)cc1Cl` (stereo not drawn), the “growth rescue (activation)” value is inactive: 18.9%.
Turning to `COc1ccc(C(=O)NCC(=O)Nc2ccccc2)cc1OC`, the “growth rescue (activation)” value was inactive: -18.9%.
The value for `Cn1ccc(CC(=O)N2CCC(N3CCC(C(=O)N4CCCC4)CC3)CC2)c1` was inactive: 22.1%; that for `CCN(CC)S(=O)(=O)c1ccc(/C=C/C(=O)Nc2ccc(Br)cc2F)cc1` was inactive: 11.7%.
As to `O=C(COc1cccc(Br)c1)Nc1ccc(Cl)c(S(=O)(=O)N2CCOCC2)c1`, the “growth rescue (activation)” value was inactive: 26.6%.
The value for `CSc1cccc(NC(=S)N(CCCN2CCCC2)Cc2cccn2Cc2ccc(Cl)cc2)c1` was inactive: -25.9%; that for `COc1ccc2c(c1)Cc1sc(NC(=O)c3ccccc3C)nc1-2` was inactive: 23.6%.
The value for `O=C(Nc1nccs1)c1cc(-c2ccncc2)nc2ccccc12` was inactive: -1.98%; that for `CC(=O)c1cc2c(cc1NC(=O)Cc1c(C)noc1C)OCO2` was inactive: 16%.
The value for `NS(=O)(=O)c1ccc(CCNC(=O)CSc2ccsc2[N+](=O)[O-])cc1` was inactive: -4.64%.
For the compound `O=C(COc1ccc(Cl)cc1Cl)N/N=C/c1cccnc1`, the “growth rescue (activation)” value is inactive: -17.7%.
The value for `CN1CCN(C(=O)CCN2C(=O)/C(=C/c3cccc(Br)c3)SC2=S)CC1` was inactive: -2.3%.
The value for `Cc1[nH]c2ccccc2c1C(=O)CN1CCSCC1` was inactive: -6.52%; that for `CCOC(=O)c1sc(NC(=O)COC(=O)c2ccco2)nc1C` was inactive: 10.9%; that for `CCC(O)c1nc2ccccc2n1CCc1ccccc1` (stereo not drawn) was inactive: -12.7%.
As to `Clc1ccc(Cl)c(OCc2cc(-c3ccccc3Cl)on2)c1`, the “growth rescue (activation)” value is inactive: -7.43%.
The value for `Cn1c(CNc2ccc(Br)cc2)nc2ccccc21` was inactive: -14.7%; that for `CC1CCN(S(=O)(=O)c2ccc(NC(=O)C3CCCCC3C(=O)O)cc2)CC1` (stereo not drawn) was inactive: -2.29%; that for `CCOc1ccc(/C(CCC(=O)O)=N/NC(=O)c2cccc(S(=O)(=O)Nc3ccccc3OC)c2)cc1` was inactive: 5.91%.
As for `CC(c1nnc(SCC(=O)Nc2cc([N+](=O)[O-])ccc2F)n1Cc1ccccc1)N(C)C` (stereo not drawn), the “growth rescue (activation)” value was inactive: -4.8%.
The value for `Cc1ccccc1N1CC(C(=O)O)CC1=O` (stereo not drawn) was inactive: -4.34%.
The value for `CCCCNC(=S)N/N=C/c1ccc(C#N)cc1` was inactive: 17.2%; that for `Cc1ccc(NC(=O)CCCC(=O)OC(C)C(=O)c2ccccc2)cc1` (stereo not drawn) was inactive: -2.95%; that for `O=C(CCCN1C(=O)/C(=C/c2cccc(Br)c2)SC1=S)Nc1cccnc1` was inactive: -0.14%.
With `Cc1c(N2C(=O)C3C4C=CC(C5CC45)C3C2=O)c(=O)n(-c2ccccc2)n1C` (stereo not drawn), the “growth rescue (activation)” value was inactive: -17.2%.
The value for `CSc1ccc(C(=O)C2CCCN(C(=O)Cc3nonc3C)C2)cc1` (stereo not drawn) was inactive: 9.77%.
The value for `Cc1cccc(C(=O)Oc2ccccc2/C=N/NC(=O)c2ccc(NC(=O)C(C)(C)C)cc2)c1` was inactive: -0.191%; that for `O=C(CCn1cnc2onc(-c3ccc(F)cc3)c2c1=O)Nc1ccc(F)c(Cl)c1` was inactive: 8.37%.
`Nc1ccc(S(=O)(=O)Nc2nccc(/C=C/c3ccc(Cl)cc3)n2)cc1`: the “growth rescue (activation)” value was inactive: -8.67%.
Regarding `CCOC(=O)c1nc(C)n(-c2ccc([N+](=O)[O-])cc2)n1`, the “growth rescue (activation)” value was inactive: -4.72%.
Turning to `CCCn1c(=O)c(C(=O)NCc2ccccc2)c(O)c2ccccc21`, the “growth rescue (activation)” value is inactive: -3.17%.
For the compound `COCCCNC1=C(Cl)C(=O)c2ccccc2C1=O`, the “growth rescue (activation)” value is inactive: 29.3%.
The value for `O=C1N/C(=N\c2ccccn2)SC1Cc1ccc(Cl)cc1` (stereo not drawn) was inactive: -2.81%.
Take `O=C(COC(=O)CN1C(=O)C2CCCCC2C1=O)Nc1cc(F)ccc1F` (stereo not drawn): the “growth rescue (activation)” value was inactive: 19.6%.
The value for `Nc1n[nH]c(N)c1N=Nc1ccccc1F` was inactive: 7.26%.
The value for `O=C(N/N=C/c1cccnc1)c1cc(C2CC2)nc2ccccc12` was inactive: 7.1%; that for `Cc1cc(C)n(CC(=O)N2CCc3ccccc32)c(=O)c1C#N` was inactive: -11.8%.
As for `O=C(/C=C\c1ccco1)c1ccc(NC(=O)c2ccco2)cc1`, the “growth rescue (activation)” value was inactive: 8.34%.
The value for `CCN(Cc1ccccc1)C(=O)CN1C(=O)NC(CC)(c2ccc(F)cc2)C1=O` (stereo not drawn) was inactive: 9.05%; that for `COc1ccc(OC)c(S(=O)(=O)N2CCCC(C(=O)N3CCCCCC3)C2)c1` (stereo not drawn) was inactive: 18.3%.
The value for `Cc1cc2oc(=O)cc(CN3CCN(S(=O)(=O)c4cccs4)CC3)c2cc1C` was inactive: 10.4%; that for `CCC(Sc1nccn1C)C(=O)Nc1ccc(Cl)cn1` (stereo not drawn) was inactive: -7.51%; that for `O=C(Cn1ccc2ccccc2c1=O)NCC(=O)N1CCCCC1` was inactive: 10.3%.
The value for `CCOc1ccc(NS(=O)(=O)c2ccc3ncsc3c2)cc1` was inactive: 25.2%; that for `COc1ccc(C(=O)OCC(=O)N2CCCCC2)cc1[N+](=O)[O-]` was inactive: 0.628%.
Turning to `CCOCCCNC(=O)C1CCCN(S(=O)(=O)c2cccc3nsnc23)C1` (stereo not drawn), the “growth rescue (activation)” value is inactive: 3.61%.
The value for `COCCn1c(-c2ccccc2)csc1=Nc1cccnc1` was inactive: 6.11%; that for `CC(C)NC(=O)c1ccc2c(c1)N(CC(=O)N1CCCC1)C(=O)C(C)(C)O2` was inactive: -2.45%.
Consider `CCOC(=O)c1cnc2cc(F)c(F)cc2c1N1CCOCC1`, for which the “growth rescue (activation)” value is inactive: 27%.
The value for `Cc1ccc(OCC(=O)N/N=C2/SCC(=O)N2Cc2ccccc2)cc1` was inactive: -0.486%; that for `CCc1cc2c(=O)n3c(nc2s1)-c1[nH]c2ccc(OC)cc2c1CC3` was inactive: 4.11%.
The value for `O=C(N/N=C\C=C\c1ccc2c(c1)OCO2)c1ccc(F)cc1` was inactive: 17.3%; that for `Cc1ccccc1NC(=O)Cc1nnc(SCC(=O)NC2CCCCC2)n1C` was inactive: 3.92%; that for `CCN(CC)S(=O)(=O)c1ccc(N2CC(C(=O)NCc3cccnc3)CC2=O)cc1` (stereo not drawn) was inactive: -5%.
Regarding `O=C(Nc1ccccc1)Nc1ccccc1NS(=O)(=O)c1cccs1`, the “growth rescue (activation)” value is inactive: 11.7%.
The value for `Cc1cccc(N2CCN(c3ccc(N4C(=O)CCCC4=O)cc3[N+](=O)[O-])CC2C)c1` (stereo not drawn) was inactive: 5.56%.
The value for `CCN(CC)S(=O)(=O)c1cccc(-c2nnc(SCCOc3ccccc3)o2)c1` was inactive: 15.5%; that for `COc1cc(C(=O)OCC(=O)NC2CCCC2)cc(OC)c1OC` was inactive: 2.23%.
The value for `CNC(=S)NNC(=O)c1cccn(Cc2ccccc2)c1=O` was inactive: 6.58%; that for `Cc1ccc(CSC(Nc2ccc(F)cc2)=C(C#N)C#N)cc1` was inactive: 14.7%; that for `O=C(O)c1ccccc1NC(=S)NC(=O)c1cccc2ccccc12` was inactive: 8.69%.
As for `COc1ccccc1C(=O)NCC(=O)OCc1ccc(Br)cc1`, the “growth rescue (activation)” value was inactive: 2.91%.
`CCOCCCN(C(=O)c1snc(C(N)=O)c1N)C(C(=O)NC1CCCC1)c1ccc(F)cc1` (stereo not drawn): the “growth rescue (activation)” value is inactive: -18.9%.
The value for `O=C(CSc1nc2ccccc2c(=O)n1-c1ccc(F)c(Cl)c1)Nc1cccc(S(=O)(=O)N2CCOCC2)c1` was inactive: 5.75%; that for `Cc1ccc(C(=O)NC2CCN(C(=O)Nc3ccc(F)cc3)CC2)cc1` was inactive: 5.39%; that for `COc1ccc(CCN2CN(S(=O)(=O)c3ccc(OC)cc3)c3nc4ccccc4nc32)cc1` was inactive: 2.14%.
In the case of `COc1ccc(NC(=O)Nc2ccc([N+](=O)[O-])cc2)cn1`, the “growth rescue (activation)” value is inactive: -22.9%.
The value for `c1ccc(CN2CCN(c3nc(-c4ccccc4)nc4ccccc34)CC2)cc1` was inactive: 26.2%; that for `COc1cc(/C=N/NC(=O)c2cccnc2)ccc1OS(=O)(=O)c1cc(C)ccc1C` was inactive: 17.4%; that for `CC(C)Oc1cc(NC(=O)CS(=O)(=O)CC(=O)N(C)C)c(Cl)cc1Cl` was inactive: 2.69%.
The value for `CC1(C)Cc2c(c(N3CCOCC3)nc3sc(C(=O)Nc4ccc(Cl)cc4)c(N)c23)CO1` was inactive: -2.24%.
The value for `CC(C)NC(=O)NC(=O)COC(=O)Cc1ccsc1` was inactive: 11%.
On to `CCOC(=O)c1ccc(N/C=C/C(=O)c2ccccc2)cc1`, for which the “growth rescue (activation)” value was inactive: 6.85%.
`CCN(CC)S(=O)(=O)c1cc(NC(=O)CCc2c(C)noc2C)ccc1C`: the “growth rescue (activation)” value is inactive: 0.455%.
`Cc1ccccc1CNC(=O)Cn1c(C)c2cnn(-c3ccccc3)c(=O)c2c1C`: the “growth rescue (activation)” value was inactive: 13.5%.
For the compound `Cc1ccccc1Cn1c(=N)n(CC(=O)c2ccco2)c2ccccc21`, the “growth rescue (activation)” value is inactive: 1.69%.
On to `CCOC(=O)C1(C)CCCCCN1C(=O)/C=C/c1ccccc1` (stereo not drawn), for which the “growth rescue (activation)” value is inactive: 20.1%.
The value for `CCOc1ccc(N2CC(C(=O)NC3CCCC3)CC2=O)cc1` (stereo not drawn) was inactive: -4.75%.
The value for `O=C(NC1CCCCC1)c1cc(S(=O)(=O)N2CCN(c3ccccc3)CC2)ccc1Cl` was inactive: -1.93%; that for `CC(C)C(NC(=O)c1ccccc1NC(=O)C(C)(C)C)C(=O)N1CCOCC1` (stereo not drawn) was inactive: 18.7%.
The value for `CCCC(=O)N1CCC1(C)C(=O)NS(=O)(=O)c1ccc(C(C)(C)C)cc1` (stereo not drawn) was inactive: 4.47%; that for `CC1(C(=O)NS(=O)(=O)C2CC2)CCCN(C(=O)c2ccccc2)C1` (stereo not drawn) was inactive: 12.7%.
For `Cn1c(-c2cccs2)[n+](C)c2ccccc21`, the “growth rescue (activation)” value was inactive: -4.89%.
The value for `CC(=O)Nc1cccc(-c2ccnc3c2CC(C(=O)NCc2ccco2)O3)c1` (stereo not drawn) was inactive: 12.9%; that for `O=C(Nc1ccccc1C(F)(F)F)N1CCCC(O)C1` (stereo not drawn) was inactive: 26.6%.
The value for `CCOc1ccc(N(CC(=O)NN=C2CCN(C)CC2)S(=O)(=O)c2ccc(Br)cc2)cc1` was inactive: -3.75%; that for `Cc1cccc(NC(=O)c2cc3c(=O)n4ccccc4nc3s2)c1` was inactive: 0.575%; that for `Cc1cccc(NC(=O)CC2Nc3cccc4cccc(c34)NC2=O)c1` (stereo not drawn) was inactive: 1.52%.
The value for `COC(=O)CNC(=O)c1cccc(-c2ccc(OC)cc2)c1` was inactive: 23.3%; that for `CCCC1=NN(c2ccc([N+](=O)[O-])cc2)C(=O)/C1=C/N(C)C` was inactive: 6.7%; that for `CCN(CC(=O)Nc1ccc(NC(C)=O)cc1)CC(=O)Nc1cccc(Cl)c1` was inactive: -20%.
Consider `CCc1nc(NCC2CCCO2)c2oc3ccccc3c2n1` (stereo not drawn), for which the “growth rescue (activation)” value was inactive: -1.46%.
The value for `COc1cccc(OCCCN2CCCCCC2)c1` was inactive: 1.49%; that for `Cc1nn(-c2ccc(F)cc2)c(Cl)c1/C=C/C(=O)OCC(=O)Nc1ccc(F)cc1F` was inactive: 0.59%; that for `CCOC(=O)C1CCCN(C(=O)/C=C/c2ccccc2[N+](=O)[O-])C1` (stereo not drawn) was inactive: 25.5%.
The value for `CCOC(=O)N1CCC(NC(=O)c2ccc3c(c2)N(Cc2ccccc2)C(=O)c2ccccc2S3(=O)=O)CC1` was inactive: 7.37%; that for `COc1cccc(C(=O)N2CCCN(C)CC2)c1OC` was inactive: 3.54%; that for `CCOC(=O)c1cc(-c2ccccc2)sc1NC(=O)C(C)(C)C` was inactive: 33.9%.
The value for `CCNC(=O)NC(=O)C(C)OC(=O)CCCc1nc2ccccc2s1` (stereo not drawn) was inactive: 19.4%.

The values are drawn from PubChem BioAssay AID1347073 (National Center for Advancing Translational Sciences (NCATS), 2019).
